# PubChem BioAssay AID1159614 (National Center for Advancing Translational Sciences (NCATS), 2016)
# The whole screen tested about 45,000 compounds, of which about 65 (0.1%) were called active. Calls come from the whole dose curve; as a rule, active = well fitted activation curve with a large enough effect; inconclusive = small, poorly fitted or top-dose-only effect; inactive = no such curve, though single readings can be large or run the other way. Some of the results follow.
# Biological target: Galactocerebrosidase (Homo sapiens) (UniProt P54803)
# Chain of UniProt P54803 (P54803 whole entry, looked up): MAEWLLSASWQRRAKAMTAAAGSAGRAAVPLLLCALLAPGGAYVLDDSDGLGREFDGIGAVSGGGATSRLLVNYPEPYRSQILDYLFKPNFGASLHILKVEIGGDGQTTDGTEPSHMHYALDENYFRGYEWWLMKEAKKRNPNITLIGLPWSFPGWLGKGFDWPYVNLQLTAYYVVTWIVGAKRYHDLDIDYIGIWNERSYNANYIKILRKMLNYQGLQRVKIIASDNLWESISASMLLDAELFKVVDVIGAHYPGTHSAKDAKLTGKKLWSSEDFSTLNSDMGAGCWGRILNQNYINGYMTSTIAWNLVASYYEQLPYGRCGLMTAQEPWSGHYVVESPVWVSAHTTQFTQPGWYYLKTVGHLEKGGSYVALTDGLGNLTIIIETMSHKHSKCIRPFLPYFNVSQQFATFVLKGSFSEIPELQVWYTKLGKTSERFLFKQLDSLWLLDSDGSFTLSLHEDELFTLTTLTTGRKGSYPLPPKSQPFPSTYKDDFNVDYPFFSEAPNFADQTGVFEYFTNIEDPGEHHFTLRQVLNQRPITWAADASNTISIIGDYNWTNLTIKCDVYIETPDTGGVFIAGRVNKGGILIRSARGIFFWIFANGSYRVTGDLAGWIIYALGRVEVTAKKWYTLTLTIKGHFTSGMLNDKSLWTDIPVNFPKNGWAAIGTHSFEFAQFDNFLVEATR
# Assay: A Novel Cell-Based Assay to Identify Small Molecules for B -Galactocerebrosidase; note: 0% is about no effect; nearly all actives have a fitted effect of over 65% in size
# Conditions: 145M-Twi-hGALC-G270D cells, HMU-beta-Gal fluorescence, 48 h; series mostly up to 57.5 µM; activation: at the top concentration
# Method in brief: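 qHTS, 1536-well; 145M-Twi-hGALC-G270D cells (WT line also made) in DMEM/F12 + 10% FBS; compound incubation on live cells; HMU-β-gal 0.1 mM final, pH 5.2, NaTC; carbonate stop; fluorescence increase = enhanced residual activity.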
row,SMILES,activation
1,O=C(CSc1nc2c([nH]c3ccccc32)c(=O)n1-c1cccc(C(F)(F)F)c1)N1CCc2ccccc21,inactive: -23.7%
2,CCc1cc2c(cc(C(=O)OC)n2Cc2nc(-c3ccc(C)cc3)oc2C)s1,inactive: -14%
3,CCOc1ccc(N(CC)C(=O)c2nn(-c3ccc(OC)cc3)c(=O)c3c2c2ccccc2n3C)cc1,inactive: -9.78%
4,CCOc1ccc(-n2c(=O)c3c4c(sc3n(CC(=O)NC(C)CC)c2=O)CCCC4)cc1 (configuration not stated),inactive: -15.9%
5,Cc1ccc(CNC(=O)C2CCN(Cc3nc(-c4cccc(Br)c4)oc3C)CC2)cc1,inactive: -11.2%
6,CC(=O)c1cccc(NC(=O)C2CCN(S(=O)(=O)c3ccc4[nH]c(=O)ccc4c3)CC2)c1,inactive: -10%
7,Cc1ccc(-n2nc3ccc(NC(=O)COc4ccccc4)cc3n2)cc1Cl,inactive: 5.6%
8,Cc1cccc(-n2c(=O)c3ccccc3n(Cc3ccccc3)c2=O)c1,inactive: 1.02%
9,CCCSc1ncc(Cl)c(C(=O)Nc2c(C(=O)Nc3ccc(OC)cc3)oc3ccccc23)n1,inactive: -10.4%
10,COc1cc(Cl)c(C)cc1NC(=O)Cn1ncc2c1-c1cc(C)ccc1OC2,inactive: 16.3%
11,CCCOc1ccc(CNC(=O)CCCn2nc(C)c3sc4ccccc4c3c2=O)cc1,inactive: 9.9%
12,Cc1ccc(CNC(=O)CCCCCn2c(=O)c3sccc3n(CC(=O)Nc3c(C)cc(C)cc3C)c2=O)cc1,inactive: -1.48%
13,O=S(=O)(c1ccc(Br)cc1)c1nnn2c1nc(NCc1ccc3c(c1)OCO3)c1sccc12,inactive: -13.9%
14,Cc1cccc(CNC(=O)c2ccc3oc(=O)n(Cc4ccccc4)c3c2)c1,inactive: -10.2%
15,COc1ccc(C(=O)Nc2nnc(SCc3cc(=O)n4cccc(C)c4n3)s2)cc1,inactive: -8.81%
16,O=C(O)c1ccc(CNCc2ccccc2Cl)s1,inactive: 5.11%
17,CCc1ccc(C(=O)N2CCC(c3nc(-c4ccc(S(=O)(=O)N5CCCC5)cc4)no3)CC2)cc1,inactive: -9.27%
18,COc1ccc(Cl)cc1NC(=O)C1CCN(S(=O)(=O)c2ccc3c(c2)CC(C)N3C(C)=O)CC1 (configuration not stated),inactive: -10.5%
19,CSc1ccc(CNC(=O)C2CCN(c3nc4ccccc4nc3C(F)(F)F)CC2)cc1,inactive: -16.6%
20,Cn1nc(C(=O)NCc2ccccc2Cl)c2c1-c1ccccc1S(=O)(=O)C2,inactive: -11.3%
21,Cc1cc(C)cc(NC(=O)CSc2oc(-c3ccco3)nc2S(=O)(=O)c2ccc(Cl)cc2)c1,inactive: -35%
22,CC1CCCN(Cc2nc3c(c(=O)n(C)c(=O)n3C)n2Cc2ccc(Cl)cc2)C1 (configuration not stated),inactive: -5.05%
23,O=C(Nc1cc(Cl)ccc1Cl)c1cc2nc(-c3ccc4c(c3)OCO4)cc(C(F)(F)F)n2n1,inactive: -19.2%
24,CCOC(=O)C1=C(C)NC(C)=C(C(=O)OC)C1c1cccc([N+](=O)[O-])c1 (configuration not stated),inactive: -12.7%

row,SMILES,activation
1,O=C(CSc1cn(CCNC(=O)c2c(F)cccc2F)c2ccccc12)Nc1ccc(F)cc1,inactive: 0.869%
2,Cc1nnc(NC(=O)CSc2nccn2Cc2ccc(Cl)cc2)s1,inactive: -4.91%
3,Cc1cc(C)c(S(=O)(=O)N2CCC(N3CCN(Cc4ccccc4)C(=O)C3=O)CC2)c(C)c1,inactive: -22.6%
4,COc1ccc2c(c1)c1c(c(=O)n(-c3ccccc3C)c(=O)n1C)n2C,inactive: -1.73%
5,CCN(CC)S(=O)(=O)c1cccc(C(=O)Nc2sc3c(c2C#N)CCC(C)C3)c1 (configuration not stated),inactive: -10.2%
6,Cc1ccc(Cl)cc1N1CCN(c2ncnc3c2nc2n3CCCCC2)CC1,inactive: -14.2%
7,CCCCNC(=O)C1CCN(c2nc3ccccc3nc2C(F)(F)F)CC1,inactive: -8.64%
8,COc1ccc(Nc2cc(C)c3cc(NC(=O)Cc4ccc(Cl)cc4)ccc3n2)cc1,inactive: 4.92%
9,COc1ccc(CNCc2c(C(=O)O)c(C)n(Cc3ccccc3C)c2C)c(OC)c1,inactive: -24.9%
10,CCN(CC)CCNC(=O)c1cn(CCOC)c(=O)c2c1c1ccccc1n2C,inactive: 23.6%
11,COc1ccc(-n2ncc(C(=O)N3CCN(c4cc(C)ccc4C)CC3)c2C2CCN(C(=O)OC(C)(C)C)CC2)cc1,inactive: -5.79%
12,COc1ccccc1N1CCN(C(CNC(=O)C(=O)NCc2ccc(F)cc2)c2cccnc2)CC1 (configuration not stated),inactive: -11.9%
13,O=C(Nc1ccc(F)c(Cl)c1)N1CCC2(CC1)Oc1ccccc1C(=O)N2Cc1ccccc1F,inactive: -11.5%
14,CCc1ccccc1NC(=O)Cc1ccc(NC(=O)N2CCCCc3ccccc32)cc1,inactive: -8.31%
15,Cc1nc2nc(NC(=O)CC(C)C)[nH]n2c(=O)c1Cc1ccccc1,inactive: -11.9%
16,COc1ccc(C)cc1NC(=O)c1cc2c(=O)n(Cc3cccnc3)ccc2nc1C,inactive: -21.5%
17,Cc1ccc(-c2c(C(=O)N3CCN(c4cc(Cl)ccc4C)CC3)oc(=O)c3ccccc23)cc1,inactive: -5.33%
18,CCS(=O)(=O)c1ncc(Cl)c(C(=O)Nc2c(C(=O)Nc3cccc(C)c3)oc3ccccc23)n1,inactive: -17.1%
19,COc1ccc(NC(=O)N2CCOc3ccc(Cl)cc32)cc1,inactive: 2.41%
20,Nc1c(C(=O)Nc2ccccc2F)sc2nc3c(cc12)CCCCCC3,inactive: -22%
21,Cc1ccc(NS(=O)(=O)c2cc(-c3cnc(C4CC4)o3)ccc2C)cc1Cl,inactive: -26.6%
22,Cc1cc(NC(=O)c2ccc3c(c2)OCCO3)cc(-c2nc3ccccc3o2)c1O,inactive: -20.7%
23,CCOC(=O)c1c(NC(=O)c2cc3nc(-c4ccc(Br)cc4)cc(C(F)(F)F)n3n2)sc(C(C)=O)c1C,inactive: -18%
